Test results reported in PMC12820563, “FoxP3 forms a head-to-head dimer in vivo and stabilizes its multimerization on adjacent microsatellites”.
This is one part of the list.

What follows are sequences tested against T1, MBP-FoxP1dN (Mus musculus, UniProt P58462 326-579) (assay: PD-seq (MBP pull-down with sequencing); 20 mM Tris-HCl pH 7.5, 100 mM NaCl, 1.5 mM MgCl2, 0.4 uM protein, 0.1 uM dsDNA library, 30 min, room temperature, amylose pull-down; high values mean tight binding). Settings: protein: recombinant; tags: His6-MBP; chain copies: 2; dsDNA, one strand shown.
T1 sequence: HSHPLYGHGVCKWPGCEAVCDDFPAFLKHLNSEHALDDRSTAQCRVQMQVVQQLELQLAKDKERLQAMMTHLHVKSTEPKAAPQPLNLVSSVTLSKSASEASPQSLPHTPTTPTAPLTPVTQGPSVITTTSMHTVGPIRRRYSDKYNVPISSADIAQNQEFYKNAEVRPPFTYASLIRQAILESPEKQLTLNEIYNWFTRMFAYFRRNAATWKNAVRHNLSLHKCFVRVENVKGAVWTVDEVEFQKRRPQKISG
In short: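 Binding is reads-per-million enrichment of pull-down over input, with replicates pooled. It comes from 30 min room-temperature incubation in Tris pH 7.5 buffer with NaCl and MgCl2 of 0.4 µM His6-MBP-tagged, N-terminally truncated mouse FoxP3 or FoxP1 fragment from E. coli with 0.1 µM Klenow-filled degenerate double-stranded DNA library, followed by amylose resin capture, three washes and Illumina sequencing of the released DNA.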

First: GATGATTGTTCTCCCAGCTGATGAATTAATTAATTCGAGTAAACAAATTTTCCTAATCTTTCTGTTCAAGCGCCATCTAC
Second: GATGATTGTTCTCCCAGCTGATGAATTCCGAGCTTCGAGTAAACAAATTTTCCTAATCTTTCTGTTCAAGCGCCATCTAC
The binding signal of the first is higher: 1.05 RPM ratio (pull-down/input) for the first, 0.828 RPM ratio (pull-down/input) for the second.

Compared with “GATGATTGTTCTCCCAGCTGATGAATTCGAGAAGTCGAGTAAACAAATTTTCCTAATCTTTCTGTTCAAGCGCCATCTAC”, “GATGATTGTTCTCCCAGCTGATGAATTGCAGTAGTCGAGTAAACAAATTTTCCTAATCTTTCTGTTCAAGCGCCATCTAC” is higher in binding signal: 0.753 RPM ratio (pull-down/input) for the first, 1.04 RPM ratio (pull-down/input) for the second.

Going from “GATGATTGTTCTCCCAGCTGATGAATTCATAGATTCGAGTAAACAAATTTTCCTAATCTTTCTGTTCAAGCGCCATCTAC” to “GATGATTGTTCTCCCAGCTGATGAATTTGGTCTATCGAGTAAACAAATTTTCCTAATCTTTCTGTTCAAGCGCCATCTAC”, the binding signal rises from 0.903 RPM ratio (pull-down/input) to 0.952 RPM ratio (pull-down/input).

First: GATGATTGTTCTCCCAGCTGATGAATTGACGGGTTCGAGTAAACAAATTTTCCTAATCTTTCTGTTCAAGCGCCATCTAC
Second: GATGATTGTTCTCCCAGCTGATGAATTTAAAAAATCGAGTAAACAAATTTTCCTAATCTTTCTGTTCAAGCGCCATCTAC
The binding signal of the first is higher: 1.06 RPM ratio (pull-down/input) for the first, 1.01 RPM ratio (pull-down/input) for the second.

Going from “GATGATTGTTCTCCCAGCTGATGAATTAGAACTGTCGAGTAAACAAATTTTCCTAATCTTTCTGTTCAAGCGCCATCTAC” to “GATGATTGTTCTCCCAGCTGATGAATTCAGCTCCTCGAGTAAACAAATTTTCCTAATCTTTCTGTTCAAGCGCCATCTAC”, the binding signal falls from 0.941 RPM ratio (pull-down/input) to 0.789 RPM ratio (pull-down/input).

Compared with “GATGATTGTTCTCCCAGCTGATGAATTTGCGCATTCGAGTAAACAAATTTTCCTAATCTTTCTGTTCAAGCGCCATCTAC”, “GATGATTGTTCTCCCAGCTGATGAATTGTTGGGCTCGAGTAAACAAATTTTCCTAATCTTTCTGTTCAAGCGCCATCTAC” is lower in binding signal: 1.35 RPM ratio (pull-down/input) for the first, 1.2 RPM ratio (pull-down/input) for the second.

Compared with “GATGATTGTTCTCCCAGCTGATGAATTGAATGAGTCGAGTAAACAAATTTTCCTAATCTTTCTGTTCAAGCGCCATCTAC”, “GATGATTGTTCTCCCAGCTGATGAATTAGTAATGTCGAGTAAACAAATTTTCCTAATCTTTCTGTTCAAGCGCCATCTAC” is higher in binding signal: 0.893 RPM ratio (pull-down/input) for the first, 1.16 RPM ratio (pull-down/input) for the second.

Going from “GATGATTGTTCTCCCAGCTGATGAATTGCGTCACTCGAGTAAACAAATTTTCCTAATCTTTCTGTTCAAGCGCCATCTAC” to “GATGATTGTTCTCCCAGCTGATGAATTCCCCAGTTCGAGTAAACAAATTTTCCTAATCTTTCTGTTCAAGCGCCATCTAC”, the binding signal falls from 1.1 RPM ratio (pull-down/input) to 0.825 RPM ratio (pull-down/input).

Compared with “GATGATTGTTCTCCCAGCTGATGAATTACGCCATTCGAGTAAACAAATTTTCCTAATCTTTCTGTTCAAGCGCCATCTAC”, “GATGATTGTTCTCCCAGCTGATGAATTTTCTGCCTCGAGTAAACAAATTTTCCTAATCTTTCTGTTCAAGCGCCATCTAC” is lower in binding signal: 1.04 RPM ratio (pull-down/input) for the first, 0.924 RPM ratio (pull-down/input) for the second.
